From PubChem BioAssay AID330 (DTP/NCI, 2004)
Toxic doses and inconclusive results are not listed. Certain results were filed several times, with different values. This is not the full list of results. There may be further records. Values given together differ for a reason that is not stated; they may come from other doses, times, organisms or constructs than stated.

Tested on: P388 leukemia ip, CD2F1 mice, survival T/C
Test: NCI In Vivo Anticancer Drug Screen. Data for tumor model P388 Leukemia (intraperitoneal) in CD2F1 (CDF1) mice
Conditions: endpoint: median survival time, higher = longer survival

Nc1nc(N)nc(Nc2ccc(-c3cc4ccc(-c5ncc[nH]5)cc4[nH]3)cc2)n1
T/C (dose: 60.0 mg/kg/injection, schedule: Q01DX005 (ip), vehicle: Klucel (hydroxypropylcellulose) (HPC)): 122 % of control and 161 % of control

O=C1c2ccccc2C(=O)c2c(NCCNCCO)ccc(O)c21
T/C (dose: 6.25 mg/kg/injection, schedule: Q04DX002 (ip), vehicle: water): 110 % of control, 116 % of control, 164 % of control | T/C (dose: 12.5 mg/kg/injection, schedule: Q04DX002 (ip), vehicle: water): 112 % of control and 179 % of control

COc1cccc2c1C(=O)c1c(O)c3c(c(O)c1C2=O)C[C@@](O)(/C(C)=N/NC(=O)c1cccc([N+](=O)[O-])c1)C[C@@H]3OC1CC(N)C(O)C(C)O1 (stereo partly specified)
T/C (dose: 12.5 mg/kg/injection, schedule: Q04DX003 (ip), vehicle: water): 114 % of control and 168 % of control

CCOC(=O)NOP(=O)(N1CC1)N1CC1
T/C (dose: 50.0 mg/kg/injection, schedule: Q01DX001 (ip), vehicle: saline + alcohol): 109 % of control and 185 % of control

CN1CCN(c2ccc3nc(-c4ccc5nc(-c6ccc(O)cc6)[nH]c5c4)[nH]c3c2)CC1
T/C (dose: 175.0 mg/kg/injection, schedule: Q01DX009 (ip), vehicle: saline): 101 % of control and 171 % of control
